Reference: PubChem BioAssay AID2675 (National Center for Advancing Translational Sciences (NCATS), 2010)
Hit rate of the full screen: of about 280,000 compounds, about 100 (0.036%) were called active. The shares of active, inactive and inconclusive entries below differ from those in the screen. Calls come from the whole dose curve; as a rule, active = well fitted inhibition curve with a large enough effect in the signal ratio, with a control signal flat (not every such curve was filed as active); inconclusive = small, poorly fitted or top-dose-only effect, or effect the other way, or a change in a side signal; inactive = no such curve, though single readings can be large or run the other way; the % refers to the signal ratio. A potency beside an inconclusive call is a rough fit, not a confirmed value. “Side channel” marks fits to a control or component signal instead of the main read-out.

What follows are molecules tested against Muscleblind-like protein 1 (Homo sapiens) (UniProt Q9NR56) (assay: qHTS Assay for Inhibitors of MBNL1-poly(CUG) RNA binding). Conditions: TR-FRET MBNL1-His/biotin-(CUG)12 binding, 665/545 ratio; activity change, negative = inhibition: at 57.5 µM (top of the series).
Method in brief: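 Ratiometric TR-FRET (665 over 545 nm, excitation 340 nm) tracks disruption of MBNL1-His/biotin-(CUG)12 complex after 60 min at room temperature, with compounds at 92 nM to 58 uM final.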
% is set by controls: 0 for no effect and ±100 for the full control effect; potency is the fitted concentration of half-maximal effect; tags give direction and shape of the fitted curve or compound fluorescence and quenching.

UniProt Q9NR56, sequence (Q9NR56 whole entry, looked up): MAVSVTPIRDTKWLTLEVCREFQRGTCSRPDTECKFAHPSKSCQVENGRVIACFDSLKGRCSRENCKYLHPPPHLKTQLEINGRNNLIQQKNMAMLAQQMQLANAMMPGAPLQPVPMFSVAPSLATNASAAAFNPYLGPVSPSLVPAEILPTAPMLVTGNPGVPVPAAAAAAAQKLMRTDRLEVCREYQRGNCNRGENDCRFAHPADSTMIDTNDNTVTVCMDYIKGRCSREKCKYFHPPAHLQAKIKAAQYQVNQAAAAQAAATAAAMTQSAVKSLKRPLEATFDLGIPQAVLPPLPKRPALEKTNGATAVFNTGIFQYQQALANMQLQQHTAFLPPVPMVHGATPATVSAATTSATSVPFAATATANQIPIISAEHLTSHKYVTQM

SMILES | Potency | activity change, negative = inhibition
O=C(c1ccc(Br)cc1)c1cc([N+](=O)[O-])ccc1N1CCOCC1 | inconclusive: 22.4 µM [quencher, side channel, partial curve] | 
CN/C=C1\C(=O)C(C)(C)Oc2ccc3ccc(=O)oc3c21 |  | inactive: 24.7%
O=C(NCCNc1ccc([N+](=O)[O-])cc1)c1ccccc1Br | inconclusive: 14.1 µM [quencher, side channel, partial curve] | 
N=c1n(CCN2CCCCC2)c2ccccc2n1CC(=O)c1cccc([N+](=O)[O-])c1 | inconclusive: 8.91 µM [quencher, side channel, partial curve] | 
COc1ccccc1NC(=O)CN(C)S(=O)(=O)c1cccc2cccnc12 |  | inactive: 1.14%
Cn1c(=O)c2nc(NCc3ccccc3)cnc2n(C)c1=O | inconclusive: 10 µM [quencher, side channel, partial curve] | 
O=C(Cn1nc(-c2ccccc2)ccc1=O)NCC1COCCO1 (centres undefined) | inconclusive: 28.2 µM [quencher, side channel, single point] | 
CCCCC(=O)c1ccc(O)cc1 |  | inactive: 3.39%
COc1ccc([N+](=O)[O-])cc1NC(=O)C(C)OC(=O)c1cccnc1 (centres undefined) | inconclusive: 22.4 µM [quencher, side channel, partial curve] | 
O=C(CC(=O)NC1CCCCC1)N/N=C/c1ccccc1[N+](=O)[O-] | inconclusive: 14.1 µM [quencher, partial curve] | 
C=CCN1C(=O)/C(=C/c2cccs2)S/C1=N\S(=O)(=O)c1ccc(F)cc1 | inconclusive: 0.1 µM [fluorescent, side channel, full curve, poor fit] | 
Cc1c(N=C2N=C(NC(=O)c3cccs3)c3ccccc32)c(=O)n(-c2ccccc2)n1C | inconclusive: 15.8 µM [quencher, side channel, partial curve] | 
Oc1cccc(/C=N/Nc2ccc(Cl)nn2)c1 | inconclusive: 12.6 µM [quencher, side channel, partial curve] | 
COc1ccc(C2C(C(C)=O)=C(C)N=c3s/c(=C\c4ccco4)c(=O)n32)c(OC)c1 (centres undefined) | inconclusive: 14.1 µM [quencher, side channel, partial curve] | 
COc1ccc(-c2noc(-c3cccs3)n2)cc1OC |  | inactive: 1.76%
CCC(C)NC(=O)C(Cc1ccccc1)n1cccc1 (centres undefined) | inconclusive: 0.398 µM [quencher, side channel, full curve] | 
CCN(CC)c1ccc(NC(=O)CN2CCN(CC(=O)Nc3ccc(OC)cc3)CC2)cc1 |  | inactive: -0.94%
Cc1ccc(C(=O)N/C(=C/c2cccc([N+](=O)[O-])c2)C(=O)NCC2CCCO2)cc1 (centres undefined) | inconclusive: 15.8 µM [quencher, partial curve] | 
CCOC(=O)c1sc(SC)c2c1CCCC2=O | inconclusive: 39.8 µM [quencher, side channel, single point] | 
Cc1ccc(S(=O)(=O)N2CCN(CC(=O)N/N=C\c3ccc(Cl)c([N+](=O)[O-])c3)CC2)cc1 | inconclusive: 14.1 µM [quencher, side channel, single point] | 

SMILES | Potency | activity change, negative = inhibition
COc1ccc(/C=C(\NC(=O)c2ccccc2)C(=O)OCC2CCCN3CCCCC23)cc1OC (centres undefined) | inconclusive: 25.1 µM [quencher, side channel, partial curve] | 
O=C(OCc1cccnc1)C1=Cc2ccccc2OC1 | inconclusive: 12.6 µM [quencher, side channel, partial curve] | 
O=c1nc2n(c3ccc([N+](=O)[O-])cc13)CCCCC2 | inconclusive: 11.2 µM [quencher, side channel, partial curve] | 
O=C1N=C(C=c2ccc(=Cc3[nH]c(=O)[nH]c3O)cc2)C(=O)N1 | inconclusive: 1.78 µM [quencher, side channel, full curve] | 
Cn1c(O)c(N=Nc2ccc(F)cc2)c2ccccc21 | inconclusive: 28.2 µM [quencher, side channel, single point] | 
CC1=NN(C(N)=S)C(=O)C1N=Nc1ccccc1Cl (centres undefined) |  | inactive: 20.1%
COc1ccc(CCn2c(-c3ccncc3)n[nH]c2=S)cc1OC |  | inactive: -0.727%
CS(=O)(=O)c1cc([N+](=O)[O-])c(Sc2nc3ccccc3[nH]2)c([N+](=O)[O-])c1 | inconclusive: 6.31 µM [quencher, side channel, partial curve] | 
O=C(O)c1ccc([N+](=O)[O-])c(CS(=O)(=O)c2ccccc2)c1 | inconclusive: 17.8 µM [quencher, side channel, partial curve] | 
CC1CCCC(C)N1CCCNC(=O)c1ccc2nc(N3CCCCC3)sc2c1 (centres undefined) |  | inactive: -4.18%
CCC(Oc1ccc(C)c(C)c1)C(=O)N1CCCN(C)CC1 (centres undefined) |  | inactive: -6.18%
COc1ccc(OC)c(-n2c(SCC(=O)N3CCc4ccccc43)nc3c(c2=O)SCC3)c1 | inconclusive: 3.98 µM [fluorescent, side channel, single point] | 
COC(=O)c1cc2c(-c3ccccc3)cc3ccccn3c-2c1C(=O)OC | inconclusive: 15.8 µM [quencher, side channel, partial curve] | 
O=C1c2ccccc2-c2nnc(-c3ccccc3)cc21 | inconclusive: 1.58 µM [quencher, side channel, full curve] | 
O=C(Nc1cc2c(oc1=O)CCCC2=O)c1ccccc1 | inconclusive: 12.6 µM [quencher, side channel, partial curve] | 
CN(C)S(=O)(=O)N1CCN(Cc2ccccc2)CC1 | inconclusive: 7.08 µM [quencher, side channel, single point] | 
COc1ccc2oc(=O)c(C(=O)OCc3ccccc3)cc2c1 | inconclusive: 15.8 µM [quencher, side channel, partial curve] | 
O=C(CCCN1C(=O)C2CCCCN2C1=O)N1CCN(c2ccc([N+](=O)[O-])cc2)CC1 (centres undefined) | inconclusive: 3.16 µM [quencher, side channel, single point] | 
O=C(CSc1ccc([N+](=O)[O-])cn1)Nc1ccc2c(c1)OCO2 | inconclusive: 10 µM [quencher, side channel, partial curve] | 
